Consider 57 molecules from PubChem BioAssay AID360 (National Center for Advancing Translational Sciences (NCATS), 2006).

Molecules are shown by their SMILES. Screen size: about 48,000 compounds; about 550 (1.1%) were called active. Roughly 4% stayed inconclusive and do not appear here. Rule as the data show it: active = potency below about 15 µM; inconclusive = mostly about 16 µM to 33 µM; inactive = weaker than that. The list shows a part of the results.
Potency is read from the fitted curve at half-maximal effect.

Sequence of UniProt P04062 (P04062 whole entry, looked up): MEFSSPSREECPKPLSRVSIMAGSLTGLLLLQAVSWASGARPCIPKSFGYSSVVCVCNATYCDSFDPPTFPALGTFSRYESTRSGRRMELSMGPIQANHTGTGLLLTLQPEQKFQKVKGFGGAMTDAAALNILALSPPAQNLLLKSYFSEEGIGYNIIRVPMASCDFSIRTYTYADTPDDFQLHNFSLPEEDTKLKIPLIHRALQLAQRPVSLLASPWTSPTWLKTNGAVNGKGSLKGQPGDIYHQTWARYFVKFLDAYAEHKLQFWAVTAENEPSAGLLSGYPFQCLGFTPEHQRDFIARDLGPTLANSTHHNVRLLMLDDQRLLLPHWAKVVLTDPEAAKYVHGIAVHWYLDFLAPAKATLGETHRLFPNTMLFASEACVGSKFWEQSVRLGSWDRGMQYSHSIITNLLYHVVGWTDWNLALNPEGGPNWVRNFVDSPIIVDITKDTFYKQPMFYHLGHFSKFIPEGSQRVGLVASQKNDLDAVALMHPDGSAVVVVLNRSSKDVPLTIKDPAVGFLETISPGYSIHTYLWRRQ

The experiment addresses Lysosomal acid glucosylceramidase (Homo sapiens) (UniProt P04062). Briefly: Glucocerebrosidase.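 Also: the screen sought inhibitors.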 Conditions: purified enzyme, resorufin glucoside fluorescence (screen aimed at inhibitors), 20 min; series mostly up to 77 µM. In outline:
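Normal human glucocerebrosidase (0.2 nM final) was assayed with resorufin β-D-glucopyranoside (30 uM final) in 50mM citric acid/KH2PO4, 10mM sodium taurocholate, 0.01% tween-20, pH 5.9. Compounds were titrated; fluorescence (Ex 548, Em 600) read after 20 min at RT.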
`Cc1cc(C)n2c(SCC(=O)N(C)C3CCS(=O)(=O)C3)nnc2n1` (configuration not stated): the Potency is inactive: > 76.9 µM. Consider `Cc1ccc2cc3cc(C(=O)N4CCCCCC4)oc3nc2c1`, for which the Potency is inactive: > 76.9 µM. Regarding `CC(C)Oc1ccc(NC(=O)C2CCCNC2=O)cc1` (configuration not stated), the Potency is inactive: > 76.9 µM. Regarding `Cc1c(Cl)cccc1Nc1nc(N)nc(CSCCO)n1`, the Potency is inactive: > 76.9 µM. On to `O=C(Oc1ccc2ccccc2c1Cl)N1CCCC1`, for which the Potency is inactive: > 76.9 µM. In the case of `Cc1cc2c(=O)n(NC(N)=O)c(C)nc2s1`, the Potency was inactive: > 76.9 µM. As for `CCCCCOC(=O)NCCOC(=O)Nc1ccc(C(=O)OCC)cc1`, the figure is inactive: > 76.9 µM. For `CCOc1ccc(-c2nc(S(=O)(=O)c3ccccc3)c(NCc3cccnc3)o2)cc1`, the Potency was inactive: > 76.9 µM. For `COc1ccc(-c2cc(CCCC(=O)NCCc3ccc(OC)cc3OC)no2)cc1`, the Potency is inactive: > 76.9 µM. Turning to `Cc1ccc2c(c1)nnn2C1CCN(S(=O)(=O)c2ccc(C(=O)N(C)C)cc2)CC1`, the Potency is inactive: > 76.9 µM. With `CCC1Oc2ccccc2N(CC(=O)NCCCN2CCCCC2C)C1=O` (configuration not stated) the figure was inactive: > 76.9 µM; with `Cc1ccc2c(C(=O)CN3CCCC3)c(C)[nH]c2c1`, inactive: > 76.9 µM. For `Cc1ccc(S(=O)(=O)N2Cc3ccccc3CC2C(=O)Nc2cc(C)on2)cc1` (configuration not stated), the Potency was inactive: > 76.9 µM. Turning to `O=C(NCC1CCCO1)C1c2ccccc2C(=O)N1C1CCCCCC1` (configuration not stated), the Potency was inactive: > 76.9 µM. Regarding `CCOC(=O)N1CCOCCOCCN(C(=O)OCC)CCOCC1`, the Potency is inactive: > 76.9 µM.

Regarding `COc1ccccc1NC(=O)Cn1c(=O)oc2ccccc21`, the Potency is inactive: > 76.9 µM. For `CCCC(=O)Nc1ccc2oc(-c3ccc(OC)c(Br)c3)nc2c1`, the Potency is inactive: > 76.9 µM. With `COc1ccc(N(Cc2cc3cc(OC)ccc3[nH]c2=O)C(=O)C2CCCO2)cc1` (configuration not stated), the Potency is inactive: > 76.9 µM. Regarding `CS(=O)(=O)N(Cc1ccccc1)c1ccc(C(=O)N2CCOCC2)cc1`, the Potency is inactive: > 76.9 µM. For the molecule `CCCSc1oc(-c2ccco2)nc1S(=O)(=O)c1ccccc1`, the Potency was inactive: > 76.9 µM. Take `CCOC(=O)C1CCN(Cc2coc3ccc(Cl)cc3c2=O)CC1`: the Potency is inactive: > 76.9 µM.

Turning to `O=C(O)Cn1cccc1C(=O)c1ccccc1`, the Potency was inactive: > 76.9 µM. As for `CC1CCC/C(=C\Nc2ccc3c(c2)OCO3)C1=O` (configuration not stated), the figure is inactive: > 76.9 µM; as for `CC#CCN(CC#CC)S(=O)(=O)c1ccc(S(=O)(=O)N2CCOCC2)cc1`, inactive: > 76.9 µM. With `COc1ccc(CCC(=O)NCc2cnn(C)c2)cc1`, the Potency is inactive: > 76.9 µM. On to `CCOC(=O)c1c(C)[nH]c(C(=O)CN2C(=O)NC(CC)(c3ccccc3)C2=O)c1C` (configuration not stated), for which the Potency is inactive: > 76.9 µM.

For the molecule `CC(c1ccco1)N(C(=O)COc1ccc(Cl)cc1Cl)c1ccccn1` (configuration not stated), the Potency is inactive: > 76.9 µM. `Cc1ccccc1CN1CCN(CC(=O)NCc2ccccc2)C1=O`: the Potency is inactive: > 76.9 µM.

For `N#Cc1ccsc1NC(=O)COc1ccc(-c2nnco2)cc1`, the Potency was inactive: > 76.9 µM.

In the case of `COC(=O)c1ccc(NC(=O)c2ccc3c(c2)OCO3)cc1`, the Potency was inactive: > 76.9 µM. Take `CCn1cc(C(=O)NCc2ccccn2)c(=O)c2cc(S(=O)(=O)N3CCCCC3)ccc21`: the Potency is inactive: > 76.9 µM. With `O=C(O)c1[nH]c2ccccc2c1CC(=O)N1CCOCC1` the figure was inactive: > 76.9 µM. As for `COc1ccc2[nH]c(=O)c(C(c3nnnn3C(C)(C)C)N(Cc3ccco3)CC3CCCO3)cc2c1` (configuration not stated), the figure is inactive: > 76.9 µM; as for `Cc1oc2c(C)c3oc(=O)c4c(c3cc2c1C)CCC4`, inactive: > 76.9 µM; as for `O=C(CC1Nc2ccccc2NC1=O)NC1CCCCC1` (configuration not stated), inactive: > 76.9 µM. With `CCCn1cc(S(=O)(=O)CC(=O)NC2CCCCC2)c2ccccc21` the figure was inactive: > 76.9 µM; with `COc1cccc(NC(=O)c2ccc3c(c2)N(CC(=O)N2CCCCC2)C(=O)C(C)(C)O3)c1`, inactive: > 76.9 µM; with `COc1ccccc1N(CC(=O)Nc1cc(C)on1)S(=O)(=O)c1cccs1`, inactive: > 76.9 µM. `COC(=O)c1ccc(Nc2cc(C)nc3ncnn23)cc1`: the Potency was inactive: > 76.9 µM.

With `O=c1cc(CSc2ccc(Cl)cc2)nc2nc[nH]n12`, the Potency is inactive: > 76.9 µM. For `CC(NC(=O)c1csc2ccccc12)C1CCCO1` (configuration not stated), the Potency was inactive: > 76.9 µM. Consider `Cc1ccc(NC(=O)c2cnn(-c3ccccc3)c2NC(=O)c2ccco2)cc1`, for which the Potency was inactive: > 76.9 µM.

With `CCC(=O)N1CCc2cc(Br)cc(S(=O)(=O)N3CCCCCC3)c21`, the Potency was inactive: > 76.9 µM. Consider `CC(C)Cn1cnc2c1c(=O)n(CC(=O)Nc1ccc3c(c1)OCO3)c(=O)n2Cc1ccccc1`, for which the Potency was inactive: > 76.9 µM. With `CC12CN3CC(C)(CN(C1)C31C(=O)N(Cc3ccccc3)c3ccccc31)C2=O` (configuration not stated), the Potency was inactive: > 76.9 µM. As for `Cc1cccc(S(=O)(=O)c2c(N)n(/N=C/c3cccnc3)c3nc4ccccc4nc23)c1`, the entry is “inactive”; as for `CCn1c(SCc2ccc(C#N)cc2)nnc1-c1ccc(S(=O)(=O)N2CCCCC2)cc1`, inactive: > 76.9 µM; as for `Cc1c(CN2CCCCC2)c(O)n(CCCO)c(=O)c1C#N`, inactive: > 76.9 µM. As for `Cc1cc(C(F)F)n2nc(C(=O)NCc3ccccc3F)nc2n1`, the figure is inactive: > 76.9 µM; as for `COc1ccc2c(c1)C(C)=CC(C)(C)N2C(=O)C(C)N1C(=O)c2ccccc2C1=O` (configuration not stated), inactive: > 76.9 µM. Consider `O=c1nc2n(c3ccccc13)Cc1ccccc1-2`, for which the Potency was inactive: > 76.9 µM.

For the molecule `Cc1cc(C)n2c(Br)c(CSc3nc4ccccc4o3)nc2n1`, the Potency was inactive: > 76.9 µM.

As for `C/C=C/CSc1nc2c(c(=O)[nH]c(=O)n2C)n1C(C)C`, the Potency is inactive: > 76.9 µM. On to `Cc1cc(C)nc(NC2=NCC(=O)N2c2ccc(F)c(Cl)c2)n1`, for which the Potency is inactive: > 76.9 µM. `CCOc1c(OC)cc(C2C(C#N)=C(N)Oc3n[nH]c(-c4ccncc4)c32)cc1OC` (configuration not stated): the Potency is inactive: > 76.9 µM.

As to `COc1ccc2cc3cc(C(=O)NCC4CCCO4)oc3nc2c1` (configuration not stated), the Potency is inactive: > 76.9 µM. For `Cc1ccc(N(CN2CCCC2=O)C(=O)c2ccc(OC(C)C)cc2)cc1`, the Potency is inactive: > 76.9 µM.
